{"source": "PubChem BioAssay AID504339", "about": "(National Center for Advancing Translational Sciences (NCATS), 2011)", "note": "“And” between values parts separate entries of the source, which are not always exact repeats. Equal entries are not always repeated. About 17,000 (4.4%) of roughly 390,000 compounds were called active. Inconclusive means that the source gave no clear call. Such entries were picked first, then a sample of the others. Calls come from the whole dose curve; as a rule, active = well fitted inhibition curve with a large enough effect; inconclusive = small, poorly fitted or top-dose-only effect; inactive = no such curve, though single readings can be large or run the other way. Potencies of inconclusive entries are doubtful fits and often do not repeat. A structure can be active in one record and inactive in another. % is set by controls: 0 for no effect and ±100 for the full control effect; potency is the fitted concentration of half-maximal effect; tags give direction and shape of the fitted curve.", "data": [{"biological_target": "Lysine-specific demethylase 4A (Homo sapiens) (UniProt O75164)", "sequence (O75164 whole entry, looked up, the tested form may be a part)": "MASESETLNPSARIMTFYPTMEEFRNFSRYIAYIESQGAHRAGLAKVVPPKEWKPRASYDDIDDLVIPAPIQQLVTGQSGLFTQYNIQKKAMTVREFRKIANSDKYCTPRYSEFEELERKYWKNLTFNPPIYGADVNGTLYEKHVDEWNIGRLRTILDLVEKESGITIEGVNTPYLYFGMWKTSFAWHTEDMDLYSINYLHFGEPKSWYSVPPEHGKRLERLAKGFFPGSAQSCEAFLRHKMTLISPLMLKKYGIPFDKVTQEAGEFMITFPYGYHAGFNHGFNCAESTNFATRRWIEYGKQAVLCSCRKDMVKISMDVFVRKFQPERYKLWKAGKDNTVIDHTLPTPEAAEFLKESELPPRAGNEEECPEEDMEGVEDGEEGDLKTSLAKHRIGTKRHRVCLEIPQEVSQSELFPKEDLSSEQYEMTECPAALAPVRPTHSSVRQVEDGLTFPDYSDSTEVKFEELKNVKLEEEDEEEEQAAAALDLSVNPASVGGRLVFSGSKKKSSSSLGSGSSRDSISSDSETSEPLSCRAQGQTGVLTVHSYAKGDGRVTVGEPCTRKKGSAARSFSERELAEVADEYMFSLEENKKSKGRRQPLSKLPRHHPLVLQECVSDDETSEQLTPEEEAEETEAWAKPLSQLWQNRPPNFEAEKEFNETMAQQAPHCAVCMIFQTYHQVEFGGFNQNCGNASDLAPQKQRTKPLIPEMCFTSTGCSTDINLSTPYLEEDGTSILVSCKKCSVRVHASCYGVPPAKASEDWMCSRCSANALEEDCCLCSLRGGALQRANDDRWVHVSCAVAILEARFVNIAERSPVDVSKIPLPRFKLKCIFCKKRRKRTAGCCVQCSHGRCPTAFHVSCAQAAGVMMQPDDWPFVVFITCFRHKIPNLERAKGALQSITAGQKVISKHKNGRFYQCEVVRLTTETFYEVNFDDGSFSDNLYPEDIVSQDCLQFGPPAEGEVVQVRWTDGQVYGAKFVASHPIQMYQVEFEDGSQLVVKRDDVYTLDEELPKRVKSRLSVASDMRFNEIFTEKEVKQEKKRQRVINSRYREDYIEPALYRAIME", "assay": "qHTS Assay for Inhibitors of JMJD2A-Tudor Domain; note: nearly all actives have a fitted effect of over 50% in size", "conditions": "AlphaScreen JMJD2A-Tudor / H3K4me3 peptide binding; activity change, negative = inhibition: at 114 µM (top of the series)", "values": [{"smiles": "COc1ccc(NCC(=O)N/N=C(\\C)c2cc3ccccc3o2)cc1", "Potency": "inconclusive: 56.2 µM [inhibitor, partial curve]"}, {"smiles": "COc1ccc(CCNC(=O)CCn2cccc2)cc1OC", "activity change, negative = inhibition": "inactive: -24.8%"}, {"smiles": "Cc1ccc(-n2c(Cc3cccn3C)nnc2SCC(=O)Nc2ccc3c(c2)OCO3)cc1", "Potency": "active: 44.7 µM"}, {"smiles": "CC(C)c1ccc2oc(-c3ccc(NC(=O)c4ncn[nH]4)cc3)nc2c1", "Potency": "active: 39.8 µM"}, {"smiles": "Cc1ccc(/C=c2\\sc3n(c2=O)CN(c2cccc(Br)c2)CN=3)o1", "Potency": "inconclusive: 56.2 µM [inhibitor, partial curve, poor fit]"}, {"smiles": "CSc1ncc(C(=O)N2CCN(c3cc(C)ccc3C)CC2)c(C)n1", "activity change, negative = inhibition": "inactive: -17.5%"}, {"smiles": "Cc1cc(/C=c2/sc3nc4ccccc4n3c2=O)c(C)n1-c1ccccn1", "Potency": "inconclusive: 79.4 µM [inhibitor, partial curve]"}, {"smiles": "CC(C)=CCc1c(-c2ccc(O)cc2O)oc2cc3c(c(O)c2c1=O)C=CC(C)(C)O3", "Potency": "inconclusive: 56.2 µM [inhibitor, partial curve]"}, {"smiles": "CCN(CC)CCNC(=O)c1cc(-c2ccco2)nc2ccccc12", "Potency": "active: 63.1 µM"}, {"smiles": "CC1(OC(=O)C2CCCC2)C(=O)C=C2C=C3CCCCN3C=C2C1=O", "note": "(stereo not given)", "activity change, negative = inhibition": "inactive: -31%"}, {"smiles": "COc1ccc(NC(=O)CN(C)C(=O)C(C)N2C(=O)c3ccccc3C2=O)cc1", "note": "(stereo not given)", "activity change, negative = inhibition": "inactive: -12.4%"}, {"smiles": "Cc1cc(NC(=O)c2cccc(C(=O)Nc3cc(C)on3)n2)no1", "Potency": "inconclusive: 89.1 µM [inhibitor, partial curve]"}, {"smiles": "O=C(CSc1nccn1C1CCCC1)Nc1ccc(C(F)(F)F)cc1", "Potency": "inconclusive: 44.7 µM [inhibitor, partial curve]"}, {"smiles": "COC(=O)c1cc(NS(=O)(=O)c2ccc(N3CCCCC3)c([N+](=O)[O-])c2)cc(C(=O)OC)c1", "Potency": "inconclusive: 79.4 µM [inhibitor, partial curve]"}, {"smiles": "O=C1/C(=C\\c2ccccc2Cl)SC(=S)N1CCC(=O)N1CCCc2ccccc21", "Potency": "inconclusive: 5.62 µM [inhibitor, partial curve]"}, {"smiles": "COc1cc(-c2cc(OC)c(O)c(OC)c2)cc(OC)c1O", "activity change, negative = inhibition": "inactive: -30.3%"}, {"smiles": "O=C(c1ccccc1)c1ccc(C(=O)N2CCN(c3ccc(F)cc3)CC2)o1", "Potency": "inconclusive: 79.4 µM [inhibitor, partial curve]"}, {"smiles": "O=C(N/N=C/c1ccc(F)cc1)c1ccccc1", "activity change, negative = inhibition": "inactive: -10.7%"}, {"smiles": "COc1ccc(C2Nc3ccccc3C(=O)N2Cc2ccco2)cc1COc1ccccc1", "note": "(stereo not given)", "Potency": "inconclusive: 44.7 µM [inhibitor, partial curve]"}, {"smiles": "CCC(CO)Oc1cc(NCc2cccnc2)c2ncn(C(C)C)c2c1", "note": "(stereo not given)", "Potency": "active: 79.4 µM"}, {"smiles": "COC(=O)c1cc(S(=O)(=O)N2CCC(C)CC2)ccc1F", "activity change, negative = inhibition": "inactive: 11.3%"}, {"smiles": "COCCC(=O)NNS(=O)(=O)c1ccc(Cl)cc1", "Potency": "inconclusive: 31.6 µM [inhibitor, partial curve]"}, {"smiles": "CCN1C(=O)/C(=C\\c2ccncc2)SC1=S", "Potency": "inconclusive: 44.7 µM [inhibitor, partial curve]"}, {"smiles": "O=C(O)CCC(=O)NCc1ccc(C(=O)O)cc1", "activity change, negative = inhibition": "inactive: -1.53% [at 57.1 µM]"}, {"smiles": "Cc1ccc(/C=C2\\CCCC3=C2NC(=S)NC3c2ccc(C)cc2)cc1", "note": "(stereo not given)", "Potency": "inconclusive: 50.1 µM [inhibitor, partial curve]"}, {"smiles": "Cc1cccc(C(=O)NNC(=O)c2ccc(F)cc2)c1", "activity change, negative = inhibition": "inactive: 7.02%"}, {"smiles": "O=C1C2C3C=CC(C3)C2C(=O)N1c1ccc(N2CCN(c3ccccn3)CC2)c([N+](=O)[O-])c1", "note": "(stereo not given)", "Potency": "inconclusive: 50.1 µM [inhibitor, partial curve]"}, {"smiles": "O=c1cc(CS(=O)(=O)c2ccccc2)nc(-c2ccncc2)[nH]1", "activity change, negative = inhibition": "inactive: -0.752% [at 11.4 µM]"}, {"smiles": "COc1ccc(S(=O)(=O)Nc2cc3c4c(oc3c3ccccc23)CC(C)(C)CC4=O)cc1", "Potency": "inconclusive: 7.94 µM [inhibitor, partial curve]"}, {"smiles": "CC(C)CN(CCCNC(=O)CC1Oc2ccccc2NC1=O)CC(C)C", "note": "(stereo not given)", "Potency": "inconclusive: 89.1 µM [inhibitor, single point]"}, {"smiles": "Cc1ccccc1-n1nc(C(=O)c2cccs2)cc(-c2nc3ccccc3[nH]2)c1=N", "Potency": "inconclusive: 44.7 µM [inhibitor, partial curve]"}, {"smiles": "CCOc1ccc(C(=O)c2ccc(OCC)c(N)c2)cc1N", "Potency": "inconclusive: 89.1 µM [inhibitor, partial curve]"}, {"smiles": "COc1ccc(C(=O)CSc2nnc(CNc3ccc(F)cc3)o2)cc1", "activity change, negative = inhibition": "inactive: -12.3%"}, {"smiles": "Cc1ccccc1S(=O)(=O)Cc1ccc(C(=O)NC2CCC(C)CC2)o1", "note": "(stereo not given)", "Potency": "inconclusive: 39.8 µM [inhibitor, single point]"}, {"smiles": "O=C(Cc1ccc(Cl)cc1Cl)Nc1cccc(S(=O)(=O)Nc2ccccc2F)c1", "Potency": "inconclusive: 89.1 µM [inhibitor, single point]"}, {"smiles": "Cc1ccc(Cn2c(=O)c3c(nc4n3CCN4Cc3ccco3)n(C)c2=O)cc1", "Potency": "inconclusive: 22.4 µM [inhibitor, full curve, poor fit]"}, {"smiles": "COc1cccc(NC(=O)CSCc2cc(=O)n3nc(C4CC4)sc3n2)c1", "activity change, negative = inhibition": "inactive: -24.3%"}, {"smiles": "CCc1ccc(-n2c(C)cc(/C=N/NC(=O)c3ccncc3)c2C)cc1", "Potency": "inconclusive: 50.1 µM [inhibitor, partial curve]"}, {"smiles": "O=C(NCc1ccco1)C1CC(=O)N(c2ccc(O)cc2)C1", "note": "(stereo not given)", "Potency": "inconclusive: 5.62 µM [inhibitor, single point]"}, {"smiles": "CCN1C(=NCc2cc(OC)c(OC)c(OC)c2)N[C@@H](c2ccccc2)C(C(=O)OC)=C1C", "Potency": "inconclusive: 8.91 µM [inhibitor, full curve, poor fit]"}, {"smiles": "CN1/C(=C/C(=S)NC(=O)C2(C)CC2(Cl)Cl)C(C)(C)c2ccccc21", "note": "(stereo not given)", "Potency": "active: 35.5 µM"}, {"smiles": "O=[N+]([O-])c1ccccc1C=NNC(=S)NN=Cc1ccccc1[N+](=O)[O-]", "Potency": "inconclusive: 31.6 µM [inhibitor, full curve]"}, {"smiles": "Cc1cccc(N/N=C/c2ccncc2)c1", "Potency": "inconclusive: 50.1 µM [inhibitor, partial curve]"}, {"smiles": "CCOc1ccc(CN2CCN(C(=O)c3cccc4ccccc34)CC2)cc1", "Potency": "active: 25.1 µM"}, {"smiles": "Cc1ccc(-c2cn(CCN)c(-c3ccc(Cl)nc3)n2)cc1", "Potency": "inconclusive: 89.1 µM [inhibitor, partial curve]"}, {"smiles": "CCCCNc1c(-c2ccc(OC)c(SC3CCCCC3)c2)nc2cc(C)ccn12", "Potency": "active: 56.2 µM"}, {"smiles": "COc1cc(/C=N/NC(=O)C2C3CCCCC32C)cc(Br)c1O", "note": "(stereo not given)", "Potency": "inconclusive: 63.1 µM [inhibitor, partial curve, poor fit]"}, {"smiles": "CCOc1ccccc1Nc1sc(C(=O)c2ccccc2)c(N)c1C(=O)Nc1ccccc1", "Potency": "inconclusive: 56.2 µM [inhibitor, partial curve]"}, {"smiles": "COc1ccc(Nc2cccc3ccccc23)cc1", "Potency": "active: 56.2 µM"}, {"smiles": "Cc1occc1-c1nnc(SCCCC(=O)c2ccc(F)cc2)n1C", "activity change, negative = inhibition": "inactive: -29.3%"}, {"smiles": "Cc1cccc(NCC(=O)N/N=C\\c2cccn2C)c1", "Potency": "inconclusive: 63.1 µM [inhibitor, partial curve, poor fit]"}, {"smiles": "N#CC1=C2SCC(O)(c3ccccc3)N2C(=O)CC1c1ccccc1F", "note": "(stereo not given)", "Potency": "inconclusive: 100 µM [inhibitor, single point]"}, {"smiles": "CCOc1ccc(Cc2c(C)[nH]c3ccc(C(=O)O)cc3c2=S)cc1", "Potency": "active: 25.1 µM"}, {"smiles": "Cc1ccc(OCCCCn2nnc3sc4c(c3c2=O)CCCC4)cc1", "activity change, negative = inhibition": "inactive: 75.2%"}, {"smiles": "COc1ccc(OC)c(NC(=S)NCCSc2ccc(C)cc2)c1", "Potency": "inconclusive: 50.1 µM [inhibitor, partial curve]"}, {"smiles": "O=C(/C=C/c1ccc(O)c(O)c1)O[C@@H]1C[C@](O)(C(=O)O)C[C@@H](O)[C@H]1O", "Potency": "active: 17.8 µM"}, {"smiles": "CC(=O)N1CCc2nc3sc(C(=O)c4ccc(F)cc4)c(N)c3c(C(F)(F)F)c2C1", "Potency": "inconclusive: 79.4 µM [inhibitor, partial curve]"}, {"smiles": "Cc1ccc(NC(=O)c2nc(S(C)(=O)=O)ncc2N(Cc2ccco2)Cc2cccs2)c(C)c1", "Potency": "inconclusive: 2.82 µM [inhibitor, full curve, poor fit]"}, {"smiles": "CCc1ccc(NC(=O)C(=O)NCC(c2cccnc2)N2CCN(c3ccc(F)cc3)CC2)cc1", "note": "(stereo not given)", "activity change, negative = inhibition": "inactive: -16.4%"}, {"smiles": "CCOCCCn1c(SCc2nc3sc(C(=O)O)c(C)c3c(=O)[nH]2)nnc1-c1ccc(Cl)cc1", "Potency": "inconclusive: 35.5 µM [inhibitor, single point]"}, {"smiles": "CCN(CC)C(=O)CSC1=C(C#N)C(c2ccco2)C(C(=O)OCCOC)=C(C)N1", "note": "(stereo not given)", "Potency": "inactive and active: 79.4 µM"}, {"smiles": "CN(C)CC/C=C1/c2ccccc2Sc2c(O)cc(Cl)cc21", "Potency": "inconclusive: 44.7 µM [inhibitor, partial curve]"}, {"smiles": "Cc1ccc(Cl)cc1NC(=O)Nc1nnc(N(C)Cc2ccccc2)s1", "Potency": "inconclusive: 44.7 µM [inhibitor, partial curve]"}, {"smiles": "Cc1ccccc1C(=O)NCC(c1ccco1)N1CCc2ccccc21", "note": "(stereo not given)", "Potency": "inconclusive: 79.4 µM [inhibitor, partial curve]"}, {"smiles": "Cc1nn(C)c(C(=O)NNC(=S)NC2CCCCC2)c1Cl", "activity change, negative = inhibition": "inactive: 1.49%"}, {"smiles": "COc1ccc(NC2CCCN(C(=O)COc3ccc(C)cc3)C2)cc1", "note": "(stereo not given)", "Potency": "inconclusive: 63.1 µM [inhibitor, partial curve]"}, {"smiles": "Oc1ccc(-c2cn3ccccc3n2)cc1O", "Potency": "active: 25.1 µM"}, {"smiles": "COc1ccc(N=C(C)C2=C(O)c3ccccc3C2=O)cc1", "Potency": "inconclusive: 50.1 µM [inhibitor, partial curve]"}, {"smiles": "Cc1c(C)n(C(=O)CN2CCN(c3ccccn3)CC2)c2ccccc12", "Potency": "inconclusive: 56.2 µM [inhibitor, partial curve]"}, {"smiles": "COC(=O)[C@@]12CCCCN1[C@H](c1ccc(-c3ccc(F)cc3)cc1)[C@@H]1C(=O)N(C)C(=O)[C@@H]12", "activity change, negative = inhibition": "inactive: -31.5%"}]}]}
